PMC10170197 (Open Biology, 2023)

Legend:
[1] = biological target: T1, GFP-Caprin-1^356–386 (human); assay: BLI; GFP-USP10^1–28 / GFP-Caprin-1^356–386 (WT and mutants) amine-coupled on AR2G sensors, NTF2 dimer in solution; 25/25 mM HEPES/MOPS pH 7.4, 150 mM NaCl, 1% glycerol, 0.05% Tween-20; apparent EC50 from pseudo-equilibrium levels; WT and mutant surfaces compared at one NTF2 concentration in a second set; conditions: both partners purified
T1 construct: source: E. coli BL21 T7 Express, purified (Strep-Tactin, TEV cleavage, Superdex 75); not shown: twin-Strep-tag-II, N-terminal, cleaved; GFP, N-terminal, kept

[2] = biological target: GFP-USP10^1–28 (UniProt Q14694 1-28); assay: as above; conditions: both partners purified

Sequence of GFP-USP10^1–28 (Q14694 1-28): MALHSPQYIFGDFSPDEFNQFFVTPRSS

B1: G3BP1-NTF2 ([…]) (domain or fragment)
chain: not shown
notes: G3BP1, NTF2-like domain, […]; Purified as a dimer; also called G3BP1-NTF2-WT; NTF2-WT; source: E. coli, purified (IMAC, Superdex 75 SEC, TEV cleavage, IMAC flow-through, SEC)
[1]
  EC50: 180 ± 110 nM
[2]
  EC50: 20 ± 10 nM
